Measured values as given in the supplement of paper PMC6089552.
The whole screen tested about 3,200 compounds, of which about 300 (9.4%) showed activity. This is a selection; strong and weak results do not stand in their true shares.

System: A673/TR/shEF
Assay: cell viability (LOESS-normalised, relative to median of negative controls) (log2 ratio); higher = more viable cells (less compound effect), active = hit call of the paper (over 3 MAD below the median)
Details: treatment time: 72 h
Method in brief: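 A673/TR/shEF Ewing sarcoma cells were plated at 1,500 per well in 384-well plates and cultured with or without doxycycline, added 24 h before compounds, to induce EWS-FLI1 shRNA knockdown. Library compounds at two or more concentrations, alongside DMSO controls, were applied for three days. Cell viability was measured by CellTiter-Glo luminescence on an Envision reader. Readings were LOESS-corrected per plate, divided by the median of negative controls and log2-transformed, and hits were wells lying at least three median absolute deviations from the median of all screened wells.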

[1] = 0.103 µM, library screen: screen3, EWS-FLI1 expression: high (no doxycycline)
[2] = 0.103 µM, library screen: screen3, EWS-FLI1 expression: low (doxycycline-induced shRNA knockdown)
[3] = 0.25 µM, library screen: screen1, EWS-FLI1 expression: high (no doxycycline)
[4] = 0.25 µM, library screen: screen1, EWS-FLI1 expression: low (doxycycline-induced shRNA knockdown)
[5] = 0.308 µM, library screen: screen3, EWS-FLI1 expression: high (no doxycycline)
[6] = 0.308 µM, library screen: screen3, EWS-FLI1 expression: low (doxycycline-induced shRNA knockdown)
[7] = 0.926 µM, library screen: screen3, EWS-FLI1 expression: high (no doxycycline)
[8] = 0.926 µM, library screen: screen3, EWS-FLI1 expression: low (doxycycline-induced shRNA knockdown)
[9] = 2.5 µM, library screen: screen1, EWS-FLI1 expression: high (no doxycycline)
[10] = 2.5 µM, library screen: screen1, EWS-FLI1 expression: low (doxycycline-induced shRNA knockdown)
[11] = 2.8 µM, library screen: screen3, EWS-FLI1 expression: high (no doxycycline)
[12] = 2.8 µM, library screen: screen3, EWS-FLI1 expression: low (doxycycline-induced shRNA knockdown)
[13] = 8.3 µM, library screen: screen3, EWS-FLI1 expression: high (no doxycycline)
[14] = 8.3 µM, library screen: screen3, EWS-FLI1 expression: low (doxycycline-induced shRNA knockdown)
[15] = 25 µM, library screen: screen3, EWS-FLI1 expression: high (no doxycycline)
[16] = 25 µM, library screen: screen3, EWS-FLI1 expression: low (doxycycline-induced shRNA knockdown)
[17] = 0.25 µM, library screen: screen2, EWS-FLI1 expression: high (no doxycycline)
[18] = 0.25 µM, library screen: screen2, EWS-FLI1 expression: low (doxycycline-induced shRNA knockdown)
[19] = 2.5 µM, library screen: screen2, EWS-FLI1 expression: high (no doxycycline)
[20] = 2.5 µM, library screen: screen2, EWS-FLI1 expression: low (doxycycline-induced shRNA knockdown)

Measured: cell viability (log2)

O=S(=O)(O)CCS
inactive: [1] 0.0839 | [2] -0.0167 | [3] 0.0837 | [4] 0.0671 | [5] 0.0789 | [6] 0.105 | [7] 0.0779 | [8] 0.129 | [9] 0.142 | [10] 0.117 | [11] 0.0725 | [12] 0.0973 | [13] 0.122 | [14] 0.0634 | [15] 0.0823 | [16] 0.116

O[C@H]1[C@H]2c3cc4c(cc3CN3CCC(=C[C@@H]1O)[C@H]23)OCO4
inactive: [3] 0.0121 | [4] 0.0722 | [9] 0.0564 | [10] -0.019

CCCCNC(=O)NS(=O)(=O)c1ccc(C)cc1
inactive: [3] 0.0859 | [4] 0.0898 | [17] 0.061 | [18] 0.0489 | [9] 0.148 | [10] 0.184 | [19] 0.107 | [20] 0.162

O=C(O)c1cc(-c2ccc(F)cc2F)ccc1O
inactive: [3] 0.035 | [4] 0.0141 | [9] 0.119 | [10] 0.189

CC(=O)[C@H]1CC[C@H]2[C@@H]3C[C@H](C)C4=CC(=O)CC[C@]4(C)[C@H]3[C@@H](O)C[C@]12C
inactive: [3] 0.0813 | [4] 0.0205 | [9] 0.139 | [10] 0.0447

COC(=O)c1c(C)cc(O)cc1O
inactive: [3] 0.114 | [4] 0.0656 | [9] 0.151 | [10] 0.171

CCCS(=O)(=O)Nc1ccc(F)c(C(=O)c2c[nH]c3ncc(-c4ccc(Cl)cc4)cc23)c1F
active: [15] -0.179
inactive: [1] 0.0151 | [2] 0.0756 | [5] -0.0936 | [6] 0.103 | [7] -0.131 | [8] 0.105 | [11] -0.159 | [12] 0.126 | [13] -0.177 | [14] 0.106 | [16] 0.0931

COc1ccc(-c2cc(=O)c3c(O)cc(O[C@@H]4O[C@H](CO[C@@H]5O[C@@H](C)[C@H](O)[C@@H](O)[C@H]5O)[C@@H](O)[C@H](O)[C@H]4O)cc3o2)cc1O
active: [3] -0.0892 | [9] -0.0968

CC=C(C)C(=O)OC1[C@@H]2C=C3C4CC(=O)O[C@@H](c5ccoc5)[C@]4(C)CCC3[C@@](C)(C2=O)[C@@H](C(O)C(=O)OC)C1(C)C (some centres undefined)
inactive: [3] 0.075 | [4] -0.00745 | [9] 0.149 | [10] 0.0968

COC(=O)C[C@H]1C(C)(C)[C@@H](O)[C@@H]2CC3=C4CC(O)O[C@@H](c5ccoc5)[C@]4(C)CCC3[C@@]1(C)C2=O (some centres undefined)
inactive: [3] 0.0392 | [4] 0.101 | [9] 0.068 | [10] 0.138

COC(=O)c1c(OC)cc2c(c1C)Oc1c(Cl)c(OC(C)=O)c(Cl)c(C)c1C(=O)O2
inactive: [3] 0.0846 | [4] 0.126 | [9] 0.0897 | [10] 0.152

CC(=O)OC1(C)CCC23CC1C(C)(C)[C@@H]2CC[C@H]3C (some centres undefined)
inactive: [3] 0.0148 | [4] 0.0289 | [9] 0.15 | [10] 0.0585

CC(=O)N[C@H]1[C@H]([C@H](O)[C@H](O)CO)O[C@](O)(C(=O)O)C[C@@H]1O
inactive: [3] 0.0617 | [4] -0.0233 | [9] 0.0203 | [10] -0.134

CCOC(=O)c1oc2c(OC)c(O)cc(O)c2c(=O)c1-c1cc(OC)c(OC)c(OC)c1
inactive: [3] 0.036 | [4] 0.0305 | [9] -0.00359 | [10] -0.108

Cn1cc(-c2ccc3nnc(C(F)(F)c4ccc5ncccc5c4)n3n2)cn1
inactive: [1] -0.0312 | [2] 0.0443 | [5] 0.0814 | [6] 0.00679 | [7] -0.00123 | [8] 0.0472 | [11] 0.0171 | [12] -0.0221 | [13] 0.0639 | [14] 0.086 | [15] 0.0673 | [16] 0.0926

c1ccc2[nH]c(-c3cscn3)nc2c1
inactive: 0.025 µM, library screen: screen2, EWS-FLI1 expression: high (no doxycycline) 0.221 | 0.025 µM, library screen: screen2, EWS-FLI1 expression: low (doxycycline-induced shRNA knockdown) 0.00965 | [3] 0.11 | [4] 0.0218 | [17] 0.197 | [18] 0.0407 | [9] 0.192 | [10] 0.119 | [19] 0.136 | [20] 0.0331 | 25 µM, library screen: screen2, EWS-FLI1 expression: high (no doxycycline) 0.0874 | 25 µM, library screen: screen2, EWS-FLI1 expression: low (doxycycline-induced shRNA knockdown) 0.0288

CN1[C@@H](CC(=O)c2ccccc2)CCC[C@H]1C[C@H](O)c1ccccc1
inactive: [3] 0.0499 | [4] 0.0843 | [17] 0.0574 | [18] 0.0857 | [9] 0.0536 | [10] 0.0322 | [19] 0.132 | [20] 0.0677

CSc1nc(N)c2ncn([C@@H]3O[C@H](COP(=O)(O)OP(=O)(O)OP(=O)(O)O)[C@H](O)C3O)c2n1 (some centres undefined)
inactive: [17] 0.257 | [18] 0.0636 | [19] 0.0652 | [20] 0.053
